# According to the supplement of paper PMC12632987:
# The full ranking holds about 2,300 sequences; the median of “median log2 fold change of GCK-ALFA target abundance (FLAG IP / Myc IP barcode read proportion)” is about 0.095, and the lowest 2% start at about -0.47. Some of the results follow.
# B1: LC3A_3_1813 (protein)
# chain: LDEELKETLELLKKAGASEETLKAVKEAAEALKEKGYENSLKTFLELMRKNKDLPSELLLAFAKDVLELIKTSDLDEESMTEEIKKIASTYENEAEIIEL
# B2: LC3A_3_1768 (protein)
# chain: MEEKVEEAKKKLKEAGADEETIETAAEAVKLLLERGLEETAEEFLKTLLELLKKSKELARDLAKDVLEILKTSDLSPEEIAEKVREEIKNYLLESEIIEL
# B3: LC3A_28_902 (protein)
# chain: SPAIASAEAALAEVKAAVAAGDQEPLVLEVKAPSKEEDVEKFLELLTQIAKEASQLKGVSIIIDIDESVSEENRNKIIDHAEELEKKYPNVTIIIALPEE
# B4: LC3A_free_8_2554 (protein)
# chain: ISEEQKAKISEVLDKAEEEIVKKAKEMGVSEEEINELEALMGFLLQDVLDALEEGPEAALKAFEEESKLIVEYAKELGEELAKEVKKVLEEAKKEIEKIL
# B5: LC3A_147_390 (protein)
# chain: YKTVVDIDILTKNAEEEVIESFKKLVEELKKKGYEVELEIEVEKIDENTTYIHIKITIKAETKEKAEEAANEVLDHYDELEEKLKDKILGSLISVEIEEE
# B6: LC3A_28_1145 (protein)
# chain: SAGVEAAKAQLDADAEADKNEPEALLTANISSTTTVEDAKEIMDHVEEIVEKLKDKKKIFVLVNFEEPVSQEVLDTAVEKGEEIEKKFPNVNVIIALPED
# B7: LC3A_28_962 (protein)
# chain: SALDEQLEATLAAAREAAARGEARVFTINVPGTADQEDIEKVIEALEEIAELLKDVPGSAIVINVDAGVKQEHIDKLAEKAEEIEKKYPNITVIIALDED
# B8: LC3A_28_1081 (protein)
# chain: SAIEEQVAAAKAELEAAIARGEEAVLTLTLTEDATEEDVATLVAGMKELAELAKNGKKTSIVVDLDGDIPQEHIDTIADAAEEIEKEVPNVTVIIALDEN
# Target: MAP1LC3A, Q9H492
# Assay: median log2 fold change of GCK-ALFA target abundance (FLAG IP / Myc IP barcode read proportion) (log2 ratio); each designed protein is fused to an ALFA-tag nanobody in HEK293 cells to bring the named protein to FLAG-tagged glucokinase (GCK); Myc marks an untargeted standard; higher = target protein stabilised (more abundant)
# Details: target protein: 3xFLAG-MCP-GCK-ALFA reporter; HEK293 landing pad (RPLP)
# Outline: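 The readout is target abundance, the per-binder median log2 ratio of FLAG to Myc barcode read proportions. It came from HEK293 landing-pad cells carrying a recombined ALFA-nanobody-fused binder library, induced with 2 μg mL^−1 doxycycline and transfected with a plasmid for a FLAG-tagged target and a Myc-tagged standard. After 48 h, lysates were immunoprecipitated with anti-FLAG and anti-Myc, and circular RNA barcodes were reverse transcribed, amplified and sequenced. Each barcode needed a proportion of at least 10^−7 in both replicates and each binder at least 3 barcodes per replicate, a pseudocount of 10^−6 was added, and the replicates were pooled.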
row,Binder,median log2 fold change
1,B1,0.292
2,B2,0.25
3,B3,-0.247
4,B4,-0.0712
5,B5,-0.201
6,B6,0.0664
7,B7,0.184
8,B8,-0.0197
